The subject of experiment [1] is MDA-MB-231 breast cancer cells. Put plainly: Tumor growth in vivo, MDA-MB-231 cells implanted into athymic mice. Particulars: 6 mg/kg intraperitoneally twice a week for 3 weeks. As for the experimental part: EA5 can inhibit tumor cell growth in vivo. 5×10^6 MDA-MB-231 breast cancer cells were implanted orthotopically or subcutaneously and 5×10^6 A549 lung cancer cells were implanted subcutaneously into athymic mice. After the tumors had grown to an average volume of 100 mm^3, mice were administered 6 mg/kg of an EA5 or negative control (PBS or 1A7 antibody) intraperitoneally twice a week for 3 weeks. Animals were generally sacrificed at least two weeks after the last treatment or when tumors exceeded 2000 mm^3. Tumor growth was assessed and expressed either as a ratio of the tumor volume divided by initial tumor volume (100 mm^3) or as total tumor volume.

Experiment [2] relates to A549 malignant lung cancer cells. Put plainly: Colony formation in soft agar, A549 cells. Format: cell-based. The settings on record: 10 μg/ml or 2.5 μg/ml, 7 days at 37° C., vs PBS. As for the experimental part:
Tumor cells were suspended in soft agar. Colony formation in soft agar was assayed as described in Zelinski et al. (2001, Cancer Res. 61: 2301-6). Antibodies or a control solution (PBS) was included in bottom and top agar solutions. Cells were suspended in soft agar for 7 days at 37° C. in the presence of purified antibody or control solution (PBS), administered at the time of suspension. Colony formation was scored microscopically using an Olympus CK-3 inverted phase-contrast microscope outfitted with a 40× objective. Clusters containing at least three cells were scored as a positive. The average number of colonies per high-powered field is shown. Ten separate high-power microscopic fields were averaged in each experiment, and the results shown are representative of at least three separate experiments.
A549 malignant lung cancer cells were incubated with either 10 μg/ml or 2.5 μg/ml of EA5 or EA2 monoclonal antibodies or a control (PBS). […] Benign MCF-7 breast epithelial tumor cells were converted to malignant cells by the overexpression of EphA2 (MCF-7^EphA2). Both tumor cell types were incubated with either EA5 monoclonal antibodies or a control (PBS). […] Results are reported as colonies per high-powered field (HPF).

Experiment [3] concerns the target T1, EphA2 (Homo sapiens, UniProt P29317). Put plainly: EphA2 tyrosine phosphorylation and degradation in MDA-MB-231 cells (immunoprecipitation / western blot). Format: cell-based. Set-up: endogenous in cells; host or cells: MDA-MB-231; MCF-10A. The settings on record: MDA-MB-231 monolayers. As for the experimental part: EphA2 antibodies promoted tyrosine phosphorylation and degradation of EphA2 in MDA-MB-231 (FIGS. 1A-1C) cells. Monolayers of cells were incubated in the presence of EA5 (FIGS. 1A-1B, lanes 2, 3) or EA2 (FIGS. 1A-1B, lanes 4, 5) or control (FIGS. 1A-1B, lane 1) for 8 minutes at 37° C. Cell lysates were then immunoprecipitated with an EphA2-specific antibody (D7, purchased from Upstate Biologicals, Inc., Lake Placid, N.Y. and deposited with the American Type Tissue Collection on Dec. 8, 2000, and assigned ATCC number PTA 2755), resolved by SDS-PAGE and subjected to western blot analysis with a phosphotyrosine-specific antibody (4G10, purchased from Upstate Biologicals, Inc., Lake Placid, N.Y.) (FIG. 1A). The membranes were stripped and re-probed with the EphA2-specific antibody used in the immunoprecipitation (D7) as a loading control.
Western blot analyses and immunoprecipitations were performed as described previously (Zantek et al., 1999, Cell Growth Diff. 10: 629-38). Briefly, detergent extracts of cell monolayers were extracted in Tris-buffered saline containing 1% Triton X-100 (Sigma, St. Louis, Mo.). […] Antibody binding was detected by enhanced chemiluminescence (Pierce, Rockford, Ill.) and autoradiography (Kodak X-OMAT; Rochester, N.Y.). […]
In general terms: In western blotting, separated proteins are transferred to a membrane and probed.

Experiment [4] concerns the target T1, EphA2. Put plainly: Flow cytometry of EA5 binding to EphA2 with or without EGTA. More on the design: endogenous in cells; host or cells: MDA-MB-231; MCF-10A. Particulars: 10 μg/ml EA5. As for the experimental part: An equivalent experiment was performed using MCF-10A or MDA-MB-231 cells. The amount of EA5 binding to EphA2 was measured using flow cytometry (FIGS. 14C-14D). Cells were either treated by incubation in 4 mM EGTA for 10-15 minutes on ice (top panel) or were not treated with EGTA (middle panel) before incubation with 10 μg/ml EA5. Cells were then fixed with 3% formalin and labeled with fluorophore-labeled donkey anti-mouse IgG. Control cells were incubated only with secondary antibody (fluorophore-labeled donkey anti-mouse IgG) in the absence of primary antibody (EA5) (bottom panel). The samples were then evaluated using flow cytometry (Becton Dickinson FACStar Plus).

In experiment [5] the target is T1, EphA2. Put plainly: EphA2 expression in MCF-7^EphA2 cells after EA5 (western blot). Particulars: 3 μg/ml EA5. Set-up: expressed in transfected cells; host or cells: MCF-7. Format: cell-based. As for the experimental part:
Estrogen-sensitive breast cancer cells, MCF-7 cells, were transfected with and stably overexpressed human EphA2 (MCF-7^EphA2) (pNeoMSV-EphA2 provided by Dr. T. Hunter, Scripps Institute). Western blot analyses confirmed the ectopic overexpression of EphA2 in transfected cells relative to matched controls (data not shown).
Growth MCF-7^EphA2 cells which had decreased EphA2 expression levels was assayed in soft agar. The EphA2 monoclonal antibody EA5 induced EphA2 activation and subsequent degradation. […] Whereas EA5 decreased soft agar colonization (by 19%), the combination of EA5 and tamoxifen caused a much more dramatic (>80%) decrease in soft agar colonization.

T1 sequence (P29317 24-976): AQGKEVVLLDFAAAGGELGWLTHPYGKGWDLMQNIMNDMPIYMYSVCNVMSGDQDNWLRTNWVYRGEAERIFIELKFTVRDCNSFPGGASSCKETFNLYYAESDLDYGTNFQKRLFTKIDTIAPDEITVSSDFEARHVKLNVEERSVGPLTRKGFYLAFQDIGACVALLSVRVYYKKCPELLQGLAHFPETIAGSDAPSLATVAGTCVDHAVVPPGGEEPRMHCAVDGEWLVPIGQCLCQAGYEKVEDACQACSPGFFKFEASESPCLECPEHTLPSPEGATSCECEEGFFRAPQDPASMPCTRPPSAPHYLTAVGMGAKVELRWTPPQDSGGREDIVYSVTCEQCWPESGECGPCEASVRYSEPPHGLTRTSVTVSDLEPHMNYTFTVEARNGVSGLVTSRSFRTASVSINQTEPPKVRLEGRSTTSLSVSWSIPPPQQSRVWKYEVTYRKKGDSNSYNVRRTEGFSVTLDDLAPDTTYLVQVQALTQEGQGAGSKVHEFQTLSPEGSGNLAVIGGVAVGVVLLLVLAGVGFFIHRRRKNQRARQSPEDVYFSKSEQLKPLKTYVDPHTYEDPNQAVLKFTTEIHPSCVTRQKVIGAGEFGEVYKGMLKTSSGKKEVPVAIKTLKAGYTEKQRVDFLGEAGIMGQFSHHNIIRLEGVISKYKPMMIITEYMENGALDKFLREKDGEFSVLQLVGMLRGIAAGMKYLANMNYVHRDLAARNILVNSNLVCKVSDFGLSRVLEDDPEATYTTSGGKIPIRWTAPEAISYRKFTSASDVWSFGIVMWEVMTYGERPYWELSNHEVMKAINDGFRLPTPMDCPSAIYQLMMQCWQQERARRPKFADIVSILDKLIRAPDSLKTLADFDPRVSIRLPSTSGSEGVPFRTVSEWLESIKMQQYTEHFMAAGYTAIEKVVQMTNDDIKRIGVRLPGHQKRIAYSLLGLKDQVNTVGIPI

B1: EA5: EphA2 agonistic monoclonal antibody; hybridoma strain EA5.12, ATCC PTA-4381; VL SEQ ID NO:17, VH SEQ ID NO:21 (antibody, listed as Home sapiens, V domains shown)
VH: EVQLQQSGPELVKTGASVKISCKASGYSFTGYYMHWVKQSHGKSLEWIGYISCYNGVTSYNQKFKGKATFTVDTSSSTAYMQFNSLTSEDSAVYYCARSHAMDYWGQGTSVTVSS
VL: DVVMTQTPLTLSVTIGQPASISCKSSQSLLYSNGKTYLNWLLQRPGQSPKRLIYLVSKLDSGVPDRFTGSGSGTDFTLKISRVEAEDLGVYYCVQGSHFPWTFGGGTKLEIK
modifications: EA5.12 Heavy chain variable region; EA5.12 Light chain variable region
Regarding B1, in experiment [1] (vs PBS or 1A7 antibody), the “Tumor growth, cells implanted orthotopically” value was “inhibited growth”. In addition, in experiment [1] (vs negative control), the “Tumor growth, cells implanted subcutaneously” value was “inhibited growth”. The “Cell growth in soft agar (colonies per high-powered field)” value in experiment [2] is “inhibited cell growth in soft agar”. In addition, the EphA2 protein levels result with EphA2 [3] (30 μg/ml, 24 hours at 37° C.) is “decrease”. Moreover, the “Levels of EphA2 phosphorylation” value with EphA2 [3] (8 minutes at 37° C., phosphotyrosine western blot) is “increase”. Besides, the “Effect of EGTA treatment on binding to non-transformed cells” value in the experiment with EphA2 [4] (MCF-10A, 4 mM EGTA 10-15 minutes on ice) was “increased by incubation in EGTA”. In addition, the “Effect of EGTA treatment on binding to transformed cells” value in the experiment with EphA2 [4] (MDA-MB-231, 4 mM EGTA 10-15 minutes on ice) is recorded as “did not affect”. Further, in the experiment with EphA2 [5], the “Levels of EphA2 expression” value was “Decreased levels of EphA2 expression were observed within two hours” and the “Time EphA2 remained undetectable” value is no less than 24 h.

(Values after US20050152899A1, “EphA2 agonistic monoclonal antibodies and methods of use thereof” (priority 2002, published 2005).)
